{"source": "PubChem BioAssay AID504332", "about": "(National Center for Advancing Translational Sciences (NCATS), 2011)", "note": "In all, about 350,000 compounds went through this assay and about 31,000 (8.9%) were called active. The inconclusive results got no clear call from the source; some entries with a clear call stand among them for comparison. Calls come from the whole dose curve; as a rule, active = well fitted inhibition curve with a large enough effect; inconclusive = small, poorly fitted or top-dose-only effect; inactive = no such curve, though single readings can be large or run the other way. Where the call is inconclusive, the potency comes from a doubtful curve fit. % is set by controls: 0 for no effect and ±100 for the full control effect; potency is the fitted concentration of half-maximal effect; tags give direction and shape of the fitted curve."}
{"molecular_target": "Histone-lysine N-methyltransferase EHMT2 (Homo sapiens) (UniProt Q96KQ7)", "sequence (Q96KQ7 whole entry, looked up)": "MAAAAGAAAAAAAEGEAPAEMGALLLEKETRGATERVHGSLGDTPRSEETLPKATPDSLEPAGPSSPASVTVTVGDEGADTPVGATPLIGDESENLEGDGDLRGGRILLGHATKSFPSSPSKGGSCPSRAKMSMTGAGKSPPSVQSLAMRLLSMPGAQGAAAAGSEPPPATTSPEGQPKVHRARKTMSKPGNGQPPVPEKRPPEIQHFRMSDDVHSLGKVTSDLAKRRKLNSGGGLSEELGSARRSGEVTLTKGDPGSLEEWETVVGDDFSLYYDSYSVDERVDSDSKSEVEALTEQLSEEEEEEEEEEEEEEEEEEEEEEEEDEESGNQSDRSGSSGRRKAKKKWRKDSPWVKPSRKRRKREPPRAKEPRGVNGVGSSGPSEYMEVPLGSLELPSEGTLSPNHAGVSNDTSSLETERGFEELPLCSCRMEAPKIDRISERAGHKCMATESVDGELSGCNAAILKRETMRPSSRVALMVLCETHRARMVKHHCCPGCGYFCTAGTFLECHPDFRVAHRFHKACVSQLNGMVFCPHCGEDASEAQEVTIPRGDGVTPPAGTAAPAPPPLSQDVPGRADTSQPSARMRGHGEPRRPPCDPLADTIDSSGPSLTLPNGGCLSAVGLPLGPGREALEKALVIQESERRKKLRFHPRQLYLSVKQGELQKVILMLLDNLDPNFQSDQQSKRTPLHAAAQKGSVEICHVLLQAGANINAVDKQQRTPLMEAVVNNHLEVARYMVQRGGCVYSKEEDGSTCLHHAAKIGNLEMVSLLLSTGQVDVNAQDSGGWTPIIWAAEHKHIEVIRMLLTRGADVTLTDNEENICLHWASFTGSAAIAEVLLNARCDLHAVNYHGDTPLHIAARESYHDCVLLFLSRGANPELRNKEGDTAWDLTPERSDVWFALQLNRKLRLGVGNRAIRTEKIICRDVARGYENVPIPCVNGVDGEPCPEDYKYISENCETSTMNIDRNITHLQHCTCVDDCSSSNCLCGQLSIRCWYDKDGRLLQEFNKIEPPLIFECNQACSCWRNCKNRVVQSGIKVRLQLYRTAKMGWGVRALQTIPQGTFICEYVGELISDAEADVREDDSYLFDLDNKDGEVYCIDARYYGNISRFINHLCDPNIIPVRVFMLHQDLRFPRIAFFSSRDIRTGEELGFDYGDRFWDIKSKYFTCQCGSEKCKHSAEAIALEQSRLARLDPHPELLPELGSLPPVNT", "test": "qHTS Assay for Inhibitors of Histone Lysine Methyltransferase G9a; note: nearly all actives have a fitted effect of over 75% in size", "settings": "G9a H3K9 monomethylation, AlphaScreen, 2 h; activity, negative = inhibition: at 59 µM (top of the series) unless noted", "summary_of_the_method": "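G9a (20 nM) was preincubated 15 min with compound, then reacted 2 h at room temperature with 500 nM biotin-H3K9 peptide and 20 µM SAM. Monomethyl-H3K9 detected by AlphaScreen using anti-H3K9me1 antibody.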"}
{"smiles": "COC(=O)c1ccc(NC(=O)CCc2c(C)nn(-c3ccc(N4CCOCC4)nn3)c2C)cc1", "Potency": "inactive"}
{"smiles": "COc1ccc(-n2c(C)cc(C(=O)NC3CCCCC3)c2C)cc1", "Potency": "inconclusive: 22.4 µM [inhibitor, single point]"}
{"smiles": "CCC(C)(C)n1nnnc1C(c1cc2ccc(OC)cc2[nH]c1=O)N1CCc2ccccc2C1", "note": "(stereo not given)", "Potency": "active: 2.51 µM"}
{"smiles": "COc1ccccc1NC(=S)NN1CCN(C)CC1", "Potency": "inconclusive: 28.2 µM [inhibitor, single point]"}
{"smiles": "O=C(CN1CCN(C(=O)N2CCCCC2)CC1)Nc1ccc(F)cc1", "Potency": "inconclusive: 31.6 µM [inhibitor, partial curve, poor fit]"}
{"smiles": "CC1Cc2ccccc2N1Cc1ccc([N+](=O)[O-])cc1", "note": "(stereo not given)", "Potency": "active: 39.8 µM"}
{"smiles": "COc1ccc(C2C(C(C)=O)=C(C)N=c3s/c(=C\\c4cc(C)n(C)c4C)c(=O)n32)c(OC)c1", "note": "(stereo not given)", "Potency": "inconclusive: 50.1 µM [inhibitor, partial curve, poor fit]"}
{"smiles": "Cc1ccc(-c2nc(NC(=O)CSc3ncn[nH]3)ns2)cc1", "Potency": "inactive"}
{"smiles": "O=S(=O)(c1c(F)cccc1F)N1CCN(C(=S)NCc2ccc3c(c2)OCO3)CC1", "Potency": "active: 31.6 µM"}
{"smiles": "Nc1ccc2c(c1)COC2=O", "Potency": "inactive"}
{"smiles": "CC(=O)Nc1ccc(S(=O)(=O)NCC(=O)OCC(=O)c2cc(C)n(-c3ccc4c(c3)OCO4)c2C)cc1", "Potency": "inconclusive: 39.8 µM [inhibitor, single point]"}
{"smiles": "CCc1ccc(NC(=O)c2sc3nc4c(cc3c2N)CN(CC)CC4)cc1", "Potency": "inconclusive: 35.5 µM [inhibitor, partial curve, poor fit]"}
{"smiles": "CCOC(=O)C(NC(=O)NCc1ccc(F)cc1)(OCC)C(F)(F)F", "note": "(stereo not given)", "Potency": "inactive"}
{"smiles": "O=C(NC(=S)N1CCCCC1)c1csc([N+](=O)[O-])c1", "Potency": "active: 25.1 µM"}
{"smiles": "Cc1ccc(/C=N/Nc2nc(N3CCCCC3)nc(N3CCCCC3)n2)o1", "Potency": "inconclusive: 89.1 µM [inhibitor, single point]"}
{"smiles": "Cc1cccc(C)c1OCC(=O)OC/C(O)=C(\\C#N)c1nc2ccccc2[nH]1", "Potency": "inconclusive: 79.4 µM [inhibitor, single point]"}
{"smiles": "Cn1cccc1C(=O)NCCc1ccc(Cl)cc1", "Potency": "inconclusive: 12.6 µM [inhibitor, full curve]"}
{"smiles": "CCc1ccccc1OCC(=O)NC1CCCC1", "Potency": "inconclusive: 10 µM [inhibitor, partial curve, poor fit]"}
{"smiles": "CCOc1ncccc1C(=O)Nc1nnc(C)s1", "Potency": "inconclusive: 28.2 µM [inhibitor, full curve]"}
{"smiles": "CCCCn1c(-c2ccco2)nc2ccccc2c1=O", "Potency": "active: 50.1 µM"}
{"smiles": "Cn1c(=O)c2c(nc(CN3CCN(C(=O)c4ccco4)CC3)n2CCc2ccccc2)n(C)c1=O", "Potency": "inconclusive: 89.1 µM [inhibitor, single point]"}
{"smiles": "CCN(Cc1nc2cc(Cl)ccc2c(=O)[nH]1)C(=O)C1CC(=O)N(c2cccc3ccccc23)C1", "note": "(stereo not given)", "Potency": "inconclusive: 39.8 µM [inhibitor, single point]"}
{"smiles": "CCC1CCc2c(sc(NC(=O)C3CC=CCC3C(=O)O)c2C#N)C1", "note": "(stereo not given)", "Potency": "inconclusive: 31.6 µM [inhibitor, single point]"}
{"smiles": "CSc1nnc(C)c(/C=C/NOCc2cccc(F)c2)n1", "Potency": "active: 22.4 µM"}
{"smiles": "O=C(CSc1n[nH]c(-c2ccccc2)n1)N1CCCC1", "Potency": "inconclusive: 7.08 µM [inhibitor, partial curve, poor fit]"}
{"smiles": "CCn1c(COc2ccc(Cl)cc2)nnc1SCC(=O)Nc1ccc2c(c1)OCCO2", "Potency": "inconclusive: 79.4 µM [inhibitor, partial curve, poor fit]"}
{"smiles": "CCC(CC)C(=O)Nc1nc(-c2ccc3c(c2)CCN3C(=O)C2CC2)c(C)s1", "Potency": "inconclusive: 25.1 µM [inhibitor, single point]"}
{"smiles": "CC(NS(=O)(=O)c1ccc(Br)cc1)C(=O)NCc1ccc2c(c1)OCO2", "note": "(stereo not given)", "Potency": "inactive"}
{"smiles": "CCCC(C)c1nnc(NC(=O)C2CC(=O)N(c3ccc(OCC)cc3)C2)s1", "note": "(stereo not given)", "Potency": "inconclusive: 39.8 µM [inhibitor, partial curve, poor fit]"}
{"smiles": "COc1cc(/C=C2\\C(=O)N(c3ccccc3)N=C2C)ccc1Oc1ccc([N+](=O)[O-])cc1[N+](=O)[O-]", "Potency": "inconclusive: 35.5 µM [inhibitor, single point]"}
{"smiles": "Cc1cc2ncn(CCC(=O)NC(C)(C)C)c2cc1C", "Potency": "inconclusive: 11.2 µM [inhibitor, partial curve, poor fit]"}
{"smiles": "Cc1ccccc1NC(=O)Cc1nc(COC(=O)c2cc(Cl)ccc2O)cs1", "Potency": "inactive"}
{"smiles": "NC(=O)CC(NC(=O)Cc1ccc(Br)cc1)c1ccc(N2CCCCCCC2)c([N+](=O)[O-])c1", "note": "(stereo not given)", "Potency": "inconclusive: 63.1 µM [inhibitor, partial curve, poor fit]"}
{"smiles": "Cc1cnc(C(=O)N2CCCC(N3CCN(c4ccccc4F)CC3)C2)cn1", "note": "(stereo not given)", "Potency": "inconclusive: 25.1 µM [inhibitor, partial curve, poor fit]"}
{"smiles": "CC(C)Nc1nc(SCC(=O)Nc2ccccc2)nc(N2CCOCC2)n1", "Potency": "inconclusive: 1.78 µM [inhibitor, partial curve, poor fit]"}
{"smiles": "CCOc1cc(/C=N/n2cnnc2)ccc1OS(=O)(=O)c1ccccc1", "Potency": "inconclusive: 0.282 µM [inhibitor, partial curve, poor fit]"}
{"smiles": "Cc1ccc(C)c(NC(=S)NNC(=O)c2csc(C(C)C)c2)c1", "Potency": "inconclusive: 25.1 µM [inhibitor, single point]"}
{"smiles": "CCN(CC(=O)Nc1cc(Cl)ccc1C)C(=O)c1ccc(=O)n(Cc2ccccc2)n1", "Potency": "inconclusive: 7.08 µM [inhibitor, partial curve, poor fit]"}
{"smiles": "COc1ccc(CCNC(=O)CSc2ccc3ccccc3c2)cc1OC", "Potency": "active: 25.1 µM"}
{"smiles": "O=c1[nH]ncn1-c1ccc(Br)cc1", "Potency": "inconclusive: 89.1 µM [inhibitor, single point]"}
{"smiles": "Cc1cc(C)c2c(=O)cc(C(=O)Nc3nc4ccc(F)cc4s3)oc2c1", "Potency": "inactive"}
{"smiles": "NC(=O)c1cccc(N)c1", "Potency": "inactive"}
{"smiles": "CCCCCc1cc(=O)oc2c(C(CCN3CCCC(C)C3)c3cc(OC)c(OC)c(OC)c3)c(OC)cc(OC)c12", "note": "(stereo not given)", "activity, negative = inhibition": "inconclusive: -61.2% [inhibitor]"}
{"smiles": "O=C(CNC(=S)NC(=O)c1ccccc1)c1ccccc1", "Potency": "inconclusive: 39.8 µM [inhibitor, single point]"}
{"smiles": "Cc1ccc(NC2CCCN(C(=O)c3cn4cccc(C)c4n3)C2)cc1C", "note": "(stereo not given)", "Potency": "inconclusive: 89.1 µM [inhibitor, single point]"}
{"smiles": "CCOC(=O)c1c(-c2ccc(C)s2)csc1N", "Potency": "inconclusive: 2.82 µM [inhibitor, full curve, poor fit]"}
{"smiles": "S=C(c1ccc2c(c1)OCO2)N1CCCCC1", "Potency": "inconclusive: 44.7 µM [inhibitor, partial curve, poor fit]"}
{"smiles": "c1ccc(CN2CCN(CCN3CCn4c3nc3ccccc34)CC2)cc1", "Potency": "inconclusive: 39.8 µM [inhibitor, single point]"}
{"smiles": "CCCc1cc(=O)[nH]c(SCc2cc(Cl)ccc2OC(F)F)n1", "Potency": "inconclusive: 8.91 µM [inhibitor, single point]"}
{"smiles": "CNC(=O)COC(=O)/C=C/c1c(C)nn(-c2ccccc2)c1C", "Potency": "active: 50.1 µM"}
{"smiles": "COc1cc2c3c(c1)C(C)CC(C)(C)N3C(=O)C2=O", "note": "(stereo not given)", "Potency": "inconclusive: 50.1 µM [inhibitor, partial curve]"}
{"smiles": "Cn1c2c(c(=O)n(C)c1=O)C(NS(=O)(=O)c1ccccc1)(C(F)(F)F)C(=O)N2", "note": "(stereo not given)", "Potency": "inconclusive: 89.1 µM [inhibitor, single point]"}
{"smiles": "COc1ccccc1N1CCN(CC(O)COc2ccc3c(c2)CCC3)CC1", "note": "(stereo not given)", "Potency": "inconclusive: 50.1 µM [inhibitor, partial curve]"}
{"smiles": "CCCCCn1c(=O)[nH]c2cc(C(=O)NCCN(C)CCCC)ccc2c1=O", "Potency": "inactive"}
{"smiles": "CCC(NC(=O)Nc1cc(Cl)ccc1OC)c1c(-n2cccc2)sc2c1CCN(C)C2", "note": "(stereo not given)", "Potency": "active: 15.8 µM"}
{"smiles": "Cc1cccc(/N=C/C2=C(O)CC(C)(C)CC2=O)n1", "Potency": "inconclusive: 89.1 µM [inhibitor, partial curve, poor fit]"}
{"smiles": "CCOc1ccc2nc(N3C(=O)C(O)=C(C(=O)c4ccco4)C3c3ccco3)sc2c1", "note": "(stereo not given)", "Potency": "inconclusive: 3.55 µM [inhibitor, partial curve, poor fit]"}
{"smiles": "CCOc1ccc(NC(=O)CN2C(=O)CSC(C)C2=O)cc1", "note": "(stereo not given)", "Potency": "inconclusive: 44.7 µM [inhibitor, partial curve, poor fit]"}
{"smiles": "CC1=NN(/C(=N\\c2nnc(C)s2)Nc2ccccc2)[C@H](c2ccc(C)cc2)S1", "Potency": "inconclusive: 39.8 µM [inhibitor, single point]"}
{"smiles": "Cc1ccc(CN(CC(=O)N/N=C/c2ccco2)S(=O)(=O)c2ccc(C)cc2)cc1", "Potency": "inconclusive: 31.6 µM [inhibitor, single point]"}
{"smiles": "O=C1C2CC=CCC2C(=O)N1c1ccc(NCCc2ccccc2)c([N+](=O)[O-])c1", "note": "(stereo not given)", "Potency": "inconclusive: 10 µM [inhibitor, partial curve, poor fit]"}
{"smiles": "O=C(OCC(=O)N1CCN(S(=O)(=O)c2ccc(Cl)cc2)CC1)c1ccc([N+](=O)[O-])o1", "Potency": "inconclusive: 44.7 µM [inhibitor, partial curve]"}
{"smiles": "O=C(/C=C/c1ccco1)Oc1ccc(C(=S)N2CCOCC2)cc1", "Potency": "inconclusive: 39.8 µM [inhibitor, single point]"}
{"smiles": "COc1ccc(CCNC(=O)Nc2cccc([N+](=O)[O-])c2)cc1", "Potency": "inconclusive: 89.1 µM [inhibitor, partial curve, poor fit]"}
{"smiles": "Cc1nnc(N2C(=O)C(O)=C(C(=O)c3ccco3)C2c2ccc(C(C)C)cc2)s1", "note": "(stereo not given)", "Potency": "active: 44.7 µM"}
